# Assay results reported in PubChem BioAssay AID463173 (ICCB-Longwood Screening Facility, Harvard Medical School, 2010).
# Out of some 52,000 compounds screened, about 1,700 (3.3%) were called active. Cut-off read from the data, not from the text of the source: active = survival mostly below about 52% (no sharp cut-off); inactive = mostly above about 56%. Some of the results follow.
# System: Wild type
# Experiment: S. aureus survival, RN4220 and DeltatarO strains – OD600, teichoic acid synthesis inhibitors, primary screen (AID 463173)
# Settings: S. aureus RN4220 wild type/DeltatarO growth, OD600, 18 h, stronger effect = lower value, screened at 18.75 µg/mL (by protocol)
row,SMILES,survival
1,CC(=O)n1c(=O)oc2cc(Cl)ccc21,inactive: 110%
2,O=C(Nc1cccc(C(F)(F)F)c1)c1cc(S(=O)(=O)N2CCCC2)c[nH]1,inactive: 88%
3,COc1ccccc1-c1noc(-c2ccc(NCc3ccco3)c([N+](=O)[O-])c2)n1,inactive: 97%
4,S=C1NNC2(CC3CC2C2CCCC32)NN1 (stereo not given),inactive: 111%
5,Cc1ccc(S(=O)(=O)N2CCCC(NC(=O)NCc3ccco3)C2)cc1 (stereo not given),inactive: 114%
6,Cc1cccc(N2CCN(C(=O)c3ccc4c(Cl)c5c(nc4c3)CCCC5)CC2C)c1 (stereo not given),inactive: 80%
7,COc1ccc(NC(=O)Cn2nnc(C(=O)NCc3ccc4c(c3)OCO4)c2N)cc1,inactive: 90%
8,O=C(NCc1ccccc1Cl)c1cnc(N2CCOCC2)c2ccccc12,inactive: 70%
9,Cc1ccc(-c2cc(-c3coc4ccc(Cl)cc4c3=O)c3c(n2)-c2ccccc2OC3)cc1,inactive: 68%
10,CCN(Cc1ccccc1)Cc1c(O)ccc2c(=O)c(-c3ccc(Cl)cc3)coc12,inactive: 86%
11,O=C(C1CCC(Cn2c(=O)c3sccc3n(Cc3ccccc3)c2=O)CC1)N1CCCCC1 (stereo not given),inactive: 73%
12,N#CSc1ccc(N2CCCCC2)cc1,inactive: 109%
13,Cc1ccc(C)c(N2CCN(C(=O)CCNS(=O)(=O)c3ccc4c(c3)CCN4C(=O)C3CC3)CC2)c1,inactive: 71%
14,Cc1ccc2cccc(NC(=O)c3cccc4c(Cl)cccc34)c2n1,inactive: 69%
15,CCOc1ccc(NC(=O)CCc2nc3cccnc3n2-c2ccccc2)cc1,inactive: 102%
16,COC(=O)c1cc2c(ccn2-c2ccc(F)cc2)n1CC(=O)c1ccc(OC)cc1,inactive: 111%
17,CC1CCN(c2nc3nonc3nc2Nc2ccc(F)cc2)CC1,inactive: 103%
18,COc1ccc(S(=O)(=O)NCCS(=O)(=O)N2CCN(c3ccccc3)CC2)cc1OC,inactive: 93%
19,Cc1ccc(NC(=O)c2oc3ccccc3c2NC(=O)c2ccc(F)c(F)c2)cc1,inactive: 83%
20,COc1ccc(NC(=O)c2oc3ccccc3c2NC(=O)C23CC4CC(CC(C4)C2)C3)c(OC)c1,inactive: 58%
21,COc1ccc2c(c1)c(CC(=O)Nc1ccc(C(C)=O)cc1)c(C)n2C(=O)c1ccc(Cl)cc1,inactive: 71%
22,CCOC(=O)CSc1nnc(-c2ccc(S(=O)(=O)NCc3cccs3)cc2)o1,inactive: 107%
23,O=C(Nc1nc2ccc(Cl)cc2s1)c1cc(=O)c2ccccc2o1,inactive: 61%
24,CCc1cccc(CC)c1NC(=O)C(Cc1ccccc1)NS(=O)(=O)c1cccc2nsnc12 (stereo not given),inactive: 74%
25,CCc1ccc(NC(=O)CSc2nc3c(oc4ccccc43)c(=O)n2-c2cccc(C)c2)cc1,inactive: 90%
26,O=c1[nH]c2ccccc2nc1/C=C(\O)c1ccccc1,inactive: 116%
27,CCc1cnc2c(c1SCc1ccccc1C)c(=O)n(C)c(=O)n2C,inactive: 65%
28,Cc1ccc(CNC(=O)CCCCCn2c(=O)c3sccc3n(CC(=O)Nc3ccc(C)c(F)c3)c2=O)cc1,inactive: 134%

row,SMILES,survival
1,CC(C)CN(CCCNC(=O)c1cc(=O)[nH]c2ccc(S(=O)(=O)N3CCCC3)cc12)CC(C)C,inactive: 136%
2,CCN1C(C(=O)c2ccccc2)=C(OC(=O)COc2ccc(OC)cc2)c2ccccc2S1(=O)=O,inactive: 78%
3,CCOC(=O)C1CCN(CN2C(=O)CCC2=O)CC1,inactive: 99%
4,CN1CCc2c(sc(NC(=O)CSc3ccc(F)cc3)c2-c2nc3ccccc3s2)C1,inactive: 124%
5,COc1cccc(C(=O)NC(=NCCc2c[nH]c3ccc(OC)cc23)Nc2nc(C)cc(C)n2)c1,inactive: 83%
6,Cc1ccc(Nc2sc(C(=O)c3ccccc3)c(N)c2C(=O)Nc2ccc(Cl)cc2)cc1,inactive: 47%
7,COc1cc2c(cc1OC)n(CC(=O)c1cccc(Cl)c1)c(=O)n1nc(CCn3nc(C)cc3C)nc21,inactive: 74%
8,CCOCCCNC(=O)c1cc(Sc2cccc(Cl)c2)nc2ccccc12,inactive: 71%
9,O=C(CCN1C(=O)c2ccccc2Sc2ncccc21)Nc1ccc(F)cc1F,inactive: 56%
10,COc1ccc(C2NC(=O)NC(C)=C2C(=O)Nc2ccccc2)cc1OC (stereo not given),inactive: 90%
11,COc1cccc(C(=O)N2c3ccc(C)cc3C(C)(c3ccccc3)CC2(C)C)c1 (stereo not given),active: -2%
12,Cc1ccccc1C(=O)Nc1sc2c(c1C(=O)N1CCCCC1)CCC(C)C2 (stereo not given),inactive: 36%
13,O=C(NCc1cccnc1)C(=O)NCC(c1cccnc1)N1CCN(c2ccc(F)cc2)CC1 (stereo not given),inactive: 95%
14,Cc1ccccc1C(=O)N/N=C1/SCC(=O)N1Cc1ccc2c(c1)OCO2,inactive: 107%
15,Cc1ccc(CC(=O)Nc2ccc3c(c2)N(C)C(=O)c2ccccc2S3)cc1,inactive: 128%
16,COC(=O)c1ccc2c(c1)N(CC(=O)Nc1ccc(OC)c(Cl)c1)C(=O)c1ccccc1S2,inactive: 54%
17,Cc1ccc(-n2nc3c(N4CCCC(C(=O)NCc5ccc(Cl)cc5)C4)nnc(C)c3c2C)cc1 (stereo not given),inactive: 72%
18,Cc1ccc(-c2nn3c(=O)cc(CN4CCN(C(=O)/C=C/c5ccccc5)CC4)nc3s2)cc1,inactive: 86%
19,CCOC(=O)c1ccc(NC(=O)C(Cc2ccccc2)N2Cc3ccccc3C2=O)cc1 (stereo not given),inactive: 73%
20,CCCOc1ccc(C(=O)Nc2ccc3oc(-c4cccc(Cl)c4Cl)nc3c2)cc1,inactive: 84%
21,CCc1ccc(-c2cn3c(n2)sc2cc(C(=O)NCCC4=CCCCC4)ccc23)cc1,inactive: 82%
22,CCOC(=O)c1ccc(NC(=O)CSc2cn(CC(=O)N3CCCC3)c3ccccc23)cc1,inactive: 89%
23,Nc1nc2c(ccc3[nH]c(=O)c(=O)[nH]c32)s1,inactive: 102%
24,CC(C)c1ccc(NC(=O)Cn2cc(S(=O)(=O)Cc3cccc(Cl)c3)c3ccccc32)cc1,inactive: 81%
25,O=C(CCS(=O)(=O)c1nc(-c2cccs2)cc(C(F)(F)F)n1)Nc1cc(Br)ccc1O,inactive: 20%
26,Cc1ccc(NC(=O)Cn2c(=O)n(Cc3nc(C)no3)c(=O)c3cc4c(cc32)OCO4)c(C)c1,inactive: 75%
27,CCOc1ccccc1C(=O)N(Cc1cc(OC)c(OC)c(OC)c1)c1ccccn1,inactive: 82%
